Results reported in a compilation of properties of binary mixtures (doi:10.1007/s11814-016-0233-0).
The densities may have been worked out from excess volumes.

Assay: xn = mol fraction of the nth substance listed
Settings: 298.15 K, 100 kPa

| SMILES | mass density (x1 = 0.0502) [kg/m3] | mass density (x1 = 0.1995) [kg/m3] | mass density (x1 = 0.2994) [kg/m3] | mass density (x1 = 0.4005) [kg/m3] | mass density (x1 = 0.5005) [kg/m3] | mass density (x1 = 0.8) [kg/m3] | mass density (x1 = 0.95) [kg/m3] | mass density (x2 = 0.198) [kg/m3] | mass density (x2 = 0.2994) [kg/m3] | mass density (x2 = 0.3986) [kg/m3] | mass density (x2 = 0.4996) [kg/m3] | mass density (x2 = 0.5997) [kg/m3] | mass density (x2 = 0.7992) [kg/m3] | mass density (x2 = 0.9001) [kg/m3] | mass density (x2 = 0.95) [kg/m3] |
| --- | --- | --- | --- | --- | --- | --- | --- | --- | --- | --- | --- | --- | --- | --- | --- |
| CC(=O)C(C)C + CCCCCCCCCCCCCC[P+](CCCCCC)(CCCCCC)CCCCCC.[Cl-] | 888.8 | 886.4 | 884.1 | 881.2 | 877.4 | 854.5 | 821.6 | – | – | – | – | – | – | – | – |
| CCCCCCCCCCCCCC[P+](CCCCCC)(CCCCCC)CCCCCC.[Cl-] + CCC(C)=O | – | – | – | – | – | – | – | 887.1 | 885.4 | 883.3 | 880.3 | 876.1 | 860.1 | 842 | 826.3 |
